Values joined by “and” are separate entries in the source; they are usually repeats but may differ in a detail not shown here. Equal entries are not always repeated. The list shows a part of the results. These are further read-outs of the screen, such as a control signal, another cell line or another target. No call is given for them.
Key:
Experiment in all cases: Primary Screen for Target Class Profiling of Small Molecule Inhibitors of Methyltransferases
[1] = target: Glycine N-methyltransferase (Homo sapiens) (UniProt Q14749); conditions: purified enzyme, MTase-Glo SAH luminescence; measured here: GNMT inhibition; at 40 µM; stronger effect = lower value
In short: (§1)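 Each enzyme was reacted with SAM and its substrate, with compounds tested once at 40 uM; SAH formed was read by MTase-Glo luminescence.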

[2] = target: Guanidinoacetate N-methyltransferase (Homo sapiens) (UniProt Q14353); conditions: purified enzyme, MTase-Glo SAH luminescence; measured here: GAMT inhibition; at 40 µM; stronger effect = lower value
In short: as §1

[3] = target: Histamine N-methyltransferase (Homo sapiens) (UniProt P50135); conditions: purified enzyme, MTase-Glo SAH luminescence; measured here: HNMT inhibition; at 40 µM; stronger effect = lower value
In short: as §1

[4] = target: Nicotinamide N-methyltransferase (Homo sapiens) (UniProt P40261); conditions: purified enzyme, MTase-Glo SAH luminescence; measured here: NNMT inhibition; at 40 µM; stronger effect = lower value
In short: as §1

[5] = target: Phenylethanolamine N-methyltransferase (Homo sapiens) (UniProt P11086); conditions: purified enzyme, MTase-Glo SAH luminescence; measured here: PNMT inhibition; at 40 µM; stronger effect = lower value
In short: as §1
% is set by controls: 0 for no effect and ±100 for the full control effect.

Structure (SMILES)	activity change, negative = inhibition [1]	activity change, negative = inhibition [2]	activity change, negative = inhibition [3]	activity change, negative = inhibition [4]	activity change, negative = inhibition [5]
CC1CCCN(c2ncnc3c2CN(c2ccc(Cl)cc2)C(=O)CN3C)C1 (stereo not drawn)	-8.29%	-7.25%	-3.17%	-31.1%	-0.799%
CCCn1c(=O)c2ccc(Cl)cc2n2c(=O)n(CC(=O)Nc3ccc(OC)c(OC)c3)nc12	-1.01%	5.71%	0.19%	2.82%	1.03%
CCOCCCNC(=O)C1c2c(n(C)c3ccccc23)SCC(=O)N1Cc1ccccc1Cl (stereo not drawn)	7.3%	1.86%	3.38%	1.96%	7.7%
CS(=O)(=O)c1ccc(S(=O)(=O)N2CCC3(CCCNC3)C2)cc1 (stereo not drawn)	-4.78%	-4.3%	0.072%	-4.41%	-2.3%
CC/C(=C(/CC)c1ccc(O)c(CN(CC)CC)c1)c1ccc(O)c(CN(CC)CC)c1		8.07%		-1.53%	6.36%
CN1C(=O)c2cc(C(=O)NCCCN3CCc4ccccc4C3)nn2CC1(C)C(=O)NCc1ccc(F)cc1 (stereo not drawn)	-11.3%	0%	-16%	-5.14%	-8.36%
O=C1NCc2c1c1c3ccccc3[nH]c1c1[nH]c3ccccc3c21	-29.7%	-7.35%	-12.9%	-20.6%	-20.6%
CCn1cc(S(=O)(=O)N2CCC(Cc3nncn3C)C2)cn1 (stereo not drawn)	0.08%	1.2%	2.53%	1.28%	11.9%
COc1ccccc1CNC(=O)C(C)n1ccc2cc(S(=O)(=O)N3CCCCC3)ccc21 (stereo not drawn)	2.12%	0.755%	0.723%	-6.03%	1.27%
N#Cc1ccc(-c2cnc3[nH]cc(NC(=O)c4cccnc4)c3c2)cc1	-4.95%	-44.9%	5.34%	123%	-87.2%
O=C(c1ccc2c(=O)nc3c(-c4ccccc4F)n[nH]n3c2c1)N1CCN(c2ccccc2)CC1	-17.1%	4.11%	-1.55%	-2.63%	0.894%
COCCN1CC(CO)C2(CCN(Cc3cccc(OC)n3)CC2)C1 (stereo not drawn)	-5.83%	0.75%	-2.98%	-2.41%	0.197%
COc1ccc(CCO[C@@H]2O[C@H](CO[C@@H]3OC[C@H](O)[C@H](O)[C@H]3O)[C@@H](O)[C@H](O)[C@H]2O)cc1	-1.28%	-8.57%	1.25%	-18.1%	-6.18%
CN1CCN(Cc2ccc(NC(=O)Cc3ccc(Oc4cc(NC(=O)C5CC5)ncn4)cc3)cc2C(F)(F)F)CC1	0.844%	9.31%	-50%	-25.8%	-8.14%
CCN1C(=O)c2cc(C(=O)Nc3cccc(F)c3)nn2CC1(C)C(=O)NC1CCCC1 (stereo not drawn)	-6.61%	-4.12%	-12.3%	-3.09%	-7.24%
Cc1ccc(NS(=O)(=O)c2cc3[nH]c(=O)[nH]c3cc2C)cc1	-1.52%	0%	3.6%	6.4%	-18.7%
CC(C)CN(CCN1C(=O)c2cc3occc3n2CC1(C)C(=O)NC1CCCCCC1)CC(C)C (stereo not drawn)	2.32%	-3.63%	4.44%	4.6%	-0.198%
CC1CCCC2OC2C(=O)c2c(O)cc(O)cc2CC(=O)O1 (stereo not drawn)	-7.29%	1.29%	-3.24%	-10.3%	3.25%
O=C(CCc1nnc2n(Cc3ccccc3Cl)c(=O)c3ccccc3n12)Nc1ccc(F)cc1	-5.51%	-7.79%	-2.7%	-19.4%	-8.5%

Structure (SMILES)	activity change, negative = inhibition [1]	activity change, negative = inhibition [2]	activity change, negative = inhibition [3]	activity change, negative = inhibition [4]	activity change, negative = inhibition [5]
Cc1cccc(C)c1NS(=O)(=O)c1ccc2[nH]c3c(c2c1)CCCC3	-8.18%	0.646%	-1.58%	-11.9%	-0.361%
C=CCn1c(=O)c2ccc(C(=O)NC(C)CC)cc2n2c(=O)n(CC(=O)Nc3ccccc3C)nc12 (stereo not drawn)	3.62%	2.37%	5.36%	-6.4%	-3.09%
N#CC1CCN(C(=O)C2CCN(C(=O)c3ccc(-c4cncnc4)cc3)CC2)CC1	-2.85%	0.004%	0.04%	-6.07%	-2.12%
COc1ccc2nc([C@H]3CCN(Cc4cccnc4)C3)[nH]c2c1	-7.38%	-4.3%	-27.8%	-23.1%	-3.27%
COc1ccccc1CNC(=O)C1(C)Cn2nc(-c3ccccc3)cc2C(=O)N1CCC1=CCCCC1 (stereo not drawn)	1.72%	3.97%	-0.437%	3.72%	-1.67%
CNCCCC1c2ccccc2C=Cc2ccccc21	6.6%	12%	2.59%	-12%	0.344%
COc1cc(O)cc(C)c1C(=O)O[C@@H]1[C@H](O)[C@@H](CO)O[C@H]1n1ccc(=O)[nH]c1=O	-1.37%	-5.39%	-8.13%	-18.3%	-3.04%
Cc1ccc(-c2nccc(N3CCC(O)C3)n2)c(C)c1 (stereo not drawn)	-2.87%	-7.73%	-6.01%	-21.1%	-12.2%
CCCn1c(=O)c2ccc(C(=O)NCC(C)C)cc2n2c(=O)n(CC(=O)Nc3ccccc3CC)nc12	11.9%	0%	11.7%	9.63%	9.28%
COCCCN1C(=O)c2c(NC(C)=O)c3cc(OC)ccc3n2CC1(C)C(=O)NC1CCCCC1 (stereo not drawn)	-7.53%	0.254%	-1.92%	3.13%	-3.29%
O=S(=O)(NCCc1noc(-c2ccccc2)n1)c1ccc2c(c1)OCCO2	-7.91%	-4.66%	-2.83%	-12.6%	-8.61%
C#CCCCn1cc(-c2cccc3c2N[C@H](C)CC(=O)N3)cn1	-8.4%	-3.4%	3.89%	-14.4%	-0.182%
Cc1cc(N2C(=O)c3cc4ccccc4n3CC2(C)C(=O)NC2CCCC2)ccc1Br (stereo not drawn)	1.7%	0.665%	-3.2%	0.987%	-0.841%
S=C(S)OC1CC2CC1C1CCCC21 (stereo not drawn)	1.12%	5.16%	2.65%	-10.9%	3.36%
O=c1c2ccccc2n2c(SCc3ccc(F)cc3)nnc2n1Cc1ccc(F)cc1	1.59%	-0.925%	3.65%	-2.03%	-0.794%
CCOC(=O)c1cc2n(n1)CC(C)(C(=O)NCc1ccccc1OC)N(CCc1ccc(Cl)cc1)C2=O (stereo not drawn)	-6.82%	1.25%	0.747%	-11.2%	-2.69%
CC(C)CNC(=O)c1ccc2c(=O)n(C(C)C)c3nn(CC(=O)c4ccc(Cl)cc4)c(=O)n3c2c1	6.27%	1.15%	10.3%	3.41%	9.71%
O=C(COc1ccc(-c2nnc3n2CCCC3)cc1)N1CCN(c2ccc(F)cc2)CC1	-0.417%	0.171%	-0.728%	-3.67%	3.52%
COc1ccc(CN2C(=O)c3cc4ccccc4n3CC2(C)C(=O)NCCCOC(C)C)cc1 (stereo not drawn)	4.44%	0%	4.63%	5.54%	1.55%

Structure (SMILES)	activity change, negative = inhibition [1]	activity change, negative = inhibition [2]	activity change, negative = inhibition [3]	activity change, negative = inhibition [4]	activity change, negative = inhibition [5]
Cc1nn(Cc2ccccc2)c(C)c1[C@@H]1C=C[C@@H](NC(=O)c2cccs2)C1	-2.96%	-1.5%	-20.5%	-25.1%	8.38%
CCCn1c(=O)c2ccc(C(=O)NC(C)C)cc2n2c(SCC(=O)NC3CCCCC3)nnc12	0.125%	0.367%	-0.804%	-1.2%	-1.68%
Cn1c(CN2CCC(O)CC2)nnc1C1CCCN(Cc2ccccn2)C1 (stereo not drawn)	-7.38%	-7.33%	-4.45%	-3.42%	-8.53%
COC(=O)c1ncn2c1C(=O)N(c1cccc(C)c1C)C(C)(C(=O)NCCCOC(C)C)C2 (stereo not drawn)	5.82%	1.18%	14.7%	4.01%	10.2%
CCCn1c(=O)c2ccc(Cl)cc2n2c(=O)n(CC(=O)c3ccc(C)cc3C)nc12	0.681%	0%	6.9%	-2.37%	1.32%
O=C1CN(Cc2ccc(F)cc2Cl)S(=O)(=O)c2ccccc2N1Cc1ccccc1	15.4%	2.19%	13.8%	5.63%	10.6%
O=c1cc(-c2ccccc2F)[nH]c2cc3c(cc12)OCO3	2.27%	7.22%	5.54%	-11%	-1.33%
CC(=O)O[C@@H]1C[C@@H](C)[C@](O)(CCC2=CC(=O)OC2)[C@@]2(C)CCCC(C)(C)C12 (stereo partly drawn)	1.82%	2.19%	3.11%	-13.3%	-0.392%
O=[N+]([O-])c1ccc(-c2nc(-c3ccc(F)cc3)c(-c3ccncc3)[nH]2)cc1	-11.7% and -11.9%	-7.13% and -6.92%	-8.09% and -7.66%	-38.2% and -22.6%	-9.97% and -12.6%
CCCC1c2cccn2CCN1C(=O)Nc1ccccc1 (stereo not drawn)	-7.25%	2.46%	-24.6%	-6.21%	-4.04%
CC(=O)OC1C(CO)OC(O[C@H]2[C@H](OC(=O)[C@]34CCC(C)(C)C[C@H]3C3=CCC5[C@@]6(C)CC[C@H](O[C@@H]7O[C@H](C(=O)O)[C@@H](O)[C@H](O[C@@H]8OC[C@@H](O)[C@H](O)[C@H]8O)[C@H]7O[C@@H]7O[C@H](CO)[C@H](O)[C@H](O)[C@H]7O)[C@@](C)(C=O)C6CC[C@@]5(C)[C@]3(C)C[C@H]4O)O[C@H](C)[C@H](OC3OC(C)C(OC4OCC(O)C(O)C4O)C(O)C3O)[C@@H]2O)C(O)C1O (stereo partly drawn)	2.55%	3.7%	6.46%	-7.73%	2.35%
O=C(Cn1nc2n(Cc3ccccc3)c(=O)c3ccccc3n2c1=O)Nc1ccc(Cl)cc1	4.32%	0%	6.42%	-2.4%	1.7%
Cc1ccc(CN2C(=O)c3cc4oc(C)cc4n3CC2(C)C(=O)NC2CCCCCCC2)cc1 (stereo not drawn)	-7.62%	-10.4%	0.353%	-14.2%	-10.2%
Cc1cc(-c2cc(OC(=O)c3ccccc3)ccc2Cl)cc2nnc(Nc3ccc(OCCN4CCCC4)cc3)nc12	-2.48%	-9.06%	-6.41%	-24%	-8.11%
COCCCN1C(=O)c2ccc(-c3ccco3)n2CC1(C)C(=O)NC1CCCCCCC1 (stereo not drawn)	-4.39%	-2.41%	1.36%	-8.48%	-3.94%
COc1ccc(CN2CCc3oc(C)c(C(=O)NC(C)Cn4ccc(C)n4)c3C2)cc1 (stereo not drawn)	-1.48%	3.57%	-0.954%	-1.46%	-0.354%
CC1=C2C(=O)C=C(CO[C@@H]3O[C@H](CO)[C@@H](O)[C@H](O)[C@H]3O)[C@@H]2[C@H]2OC(=O)[C@H](C)[C@@H]2CC1	2.91%	5.19%	5.8%	-6.72%	-0.885%
Cc1ccccc1OC1(C(=O)O)CCN(c2ncccc2C(N)=O)CC1	-2.28%	-13.1%	-2.16%	-7.12%	-5.25%
Cc1ccc(N2C(=O)c3nc4ccccc4n3CC2(C)C(=O)NC2CCCCCC2)cc1 (stereo not drawn)	6.4%	0%	10.6%	15.5%	4.44%
